Source: IntAct's records for PubMed 25910212

B1: 5-hydroxytryptamine receptor 1B (Homo sapiens), P28222 (parent)
chain: MEEPGAQCAPPPPAGSETWVPQANLSSAPSQNCSAKDYIYQDSISLPWKVLLVMLLALITLATTLSNAFVIATVYRTRKLHTPANYLIASLAVTDLLVSILVMPISTMYTVTGRWTLGQVVCDFWLSSDITCCTASILHLCVIALDRYWAITDAVEYSAKRTPKRAAVMIALVWVFSISISLPPFFWRQAKAEEEVSECVVNTDHILYTVYSTVGAFYFPTLLLIALYGRIYVEARSRILKQTPNRTGKRLTRAQLITDSPGSTSSVTSINSRVPDVPSESGSPVYVNQVKVRVSDALLEKKKLMAARERKATKTLGIILGAFIVCWLPFFIISLVMPICKDACWFHLAIFDFFTWLGYLNSLINPIIYTMSNEDFKQAFHKLIRFKCTS
B2: Myeloid differentiation primary response protein MyD88 (Homo sapiens), Q99836 (parent)
chain: MAAGGPGAGSAAPVSSTSSLPLAALNMRVRRRLSLFLNVRTQVAADWTALAEEMDFEYLEIRQLETQADPTGRLLDAWQGRPGASVGRLLELLTKLGRDDVLLELGPSIEEDCQKYILKQQQEEAEKPLQVAAVDSSVPRTAELAGITTLDDPLGHMPERFDAFICYCPSDIQFVQEMIRQLEQTNYRLKLCVSDRDVLPGTCVWSIASELIEKRCRRMVVVVSDDYLQSKECDFQTKFALSLSPGAHQKRLIPIKYKAMKKEFPSILRFITVCDYTNPCTKSWFWTRLAKALSLP
partner: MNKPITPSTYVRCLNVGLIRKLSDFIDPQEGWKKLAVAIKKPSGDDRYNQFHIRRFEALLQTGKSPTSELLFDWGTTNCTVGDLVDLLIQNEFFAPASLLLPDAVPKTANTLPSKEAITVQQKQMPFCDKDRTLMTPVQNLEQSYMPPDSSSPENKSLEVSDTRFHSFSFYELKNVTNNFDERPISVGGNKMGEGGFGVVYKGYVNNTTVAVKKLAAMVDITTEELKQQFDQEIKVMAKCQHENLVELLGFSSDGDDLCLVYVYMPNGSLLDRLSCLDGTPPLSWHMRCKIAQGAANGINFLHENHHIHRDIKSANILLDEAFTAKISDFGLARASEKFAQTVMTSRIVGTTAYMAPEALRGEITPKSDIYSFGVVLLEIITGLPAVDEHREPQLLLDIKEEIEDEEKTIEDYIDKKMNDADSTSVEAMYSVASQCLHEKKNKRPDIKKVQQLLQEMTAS

Variants of: B1
Conditions: with mdfi_human MDFI

| effect of a mutation on the interaction | Variant |
| --- | --- |
| with no effect | F124C |

Variants of: B2
Conditions: with irak4_human IRAK4, Q9NWZ3

| effect of a mutation on the interaction | Variant |
| --- | --- |
| with no effect | R196C |

Variants of: B2
Conditions: with irak4_human IRAK4, Q9NWZ3
Remark: another data set of the same source

| effect of a mutation on the interaction | Variant |
| --- | --- |
| disrupting interaction strength | R196C |
